Results on 44 compounds are retold here after PubChem BioAssay AID504845 (National Center for Advancing Translational Sciences (NCATS), 2011).

Among all 390,000 compounds or so, about 150 (0.038%) were called active. Not shown: some 3% with an inconclusive outcome. The call rests on the fitted dose curve; in most records, active means well fitted inhibition curve with a large enough effect; inconclusive means small, poorly fitted or top-dose-only effect; inactive means no such curve, though single readings can be large or run the other way. This is a selection; strong and weak results do not stand in their true shares. A structure can be active in one record and inactive in another. Starred links: 1 amine or outer side, 2 acyl side, 3 side chain; linkers in the order of their positions; H or OH if unused. Non-standard residues stand in square brackets, D forms with d. Residues, ends and D or L forms follow the SMILES beside them. X2 = C[C@H](O)[C@@H](C(=O)[*:2])N(C(C)(C)C)[*:1]; X1 = CC(C)(C)N([C@@H](CS)C(=O)[*:2])[*:1]
On the % scale 0 is the no-effect control and ±100 the full control effect; potency means the concentration at half of the fitted maximal effect.

This experiment has as its target Regulator of G-protein signaling 4 (Homo sapiens) (UniProt P49798). Kind of experiment: Inhibitors of Regulator of G Protein Signaling (RGS) 4: qHTS. Further: nearly all actives have a fitted effect of over 75% in size. To be noted: Transcreener GDP fluorescence polarization, RGS4-accelerated GTP hydrolysis; series mostly up to 114 µM; activity change, negative = inhibition: at the top concentration. The text has this: G-protein-coupled receptors (GPCRs) are well-established targets for drug discovery and development. Members of the "regulator of G-protein signaling" (RGS)-protein superfamily have recently emerged as critical modulators of specific GPCR signaling pathways. […] Combining specific RGS domain inhibitors with existing GPCR agonists should potentiate cellular responses and could also increase the specificity of action of existing therapeutics. Small molecule modulators of RGS domain activity should also have clinical utility in inhibiting or potentiating the actions of endogenous GPCR agonists. In particular, the diversity of RGS proteins with highly localized and dynamically regulated distributions in the human brain makes this family of proteins attractive targets for pharmacotherapy of central nervous system (CNS) disorders such as Parkinson's disease, schizophrenia, and anxiety.
UniProt P49798, sequence (P49798 whole entry, looked up, the tested form may be a part): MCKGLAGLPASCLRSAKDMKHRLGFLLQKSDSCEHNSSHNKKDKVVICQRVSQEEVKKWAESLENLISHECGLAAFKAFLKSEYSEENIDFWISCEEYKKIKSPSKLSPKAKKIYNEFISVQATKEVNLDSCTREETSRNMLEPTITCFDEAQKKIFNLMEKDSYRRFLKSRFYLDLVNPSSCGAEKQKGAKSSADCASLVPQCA
This assay was used to screen the NIH Molecular Libraries Small Molecule Repository (MLSMR) in order to identify a small molecule that inhibits RGS4.
NIH Chemical Genomics Center [NCGC]
NIH Molecular Libraries Probe Centers Network [MLPCN]
Assay Submitter (PI): David Siderovski, University of North Carolina Chapel Hill (School of Medicine)
Two microliters of 500nM (2x working concentration) is dispensed into black medium-binding solid-bottom Kalypsys plates. Then with the Kalypsys pintool 23nl of control and compounds are transferred; the control compound is […] CCG-4986 (working concentration). After a 10 minute incubation at room temperature 2ul of antibody is added with the Kalypsys dispenser; (-)RGS4/Transcreener GDP solution in columns 3 and 4 which consisted of 10nM (2x working concentration) Alexa633, 20uM GTP, and 20 ug/ml GDP antibody and (+)RGS4/Transcreener GDP solution in columns 1,2, and 5 to 48 which consists of 900nM RGS4 (2x working concentration), 10nM Alexa633, 20 ug/ml GDP antibody. The plate is centrifuged at 1000 RPM for 15 seconds to remove any possible bubbles and then incubated for 5 minutes at ambient room temperature. An initial fluorescent polarization read (620 nm/688 nm) is performed on the Envision before the plate is incubated for 90 minutes at 30 deg C at a relative humidity of 80%. The plate is once more centrifuged at 1000 RPM for 15 seconds and another Envision fluorescent polarization (620 nm/688 nm) read is carried out.
In general terms: In qHTS, concentration-response curves come from the screen itself.
Turning to `CN1CC[C@@]2(c3cccc(O)c3)Cc3nc4ccccc4cc3C[C@H]2C1`, the “activity change, negative = inhibition” value was inactive: 0% [at 56.9 µM].

`CC(C)[C@H]1C(=O)N2CCC[C@H]2[C@]2(O)O[C@](NC(=O)[C@@H]3C=C4c5cccc6[nH]cc(c56)C[C@H]4N(C)C3)(C(C)C)C(=O)N12`: the “activity change, negative = inhibition” value was inactive: -34.7%.

For `N#CC(C#N)=Cc1ccc(O)c(O)c1`, the “activity change, negative = inhibition” value was inactive: -41.1%.

Regarding `CC(C)NCC(O)COc1cccc2[nH]ccc12` (centres undefined), the “activity change, negative = inhibition” value is inactive: -11.1% [at 56.9 µM].

With `NC(=O)CI`, the Potency was active: 18.9 µM.

For the compound `CC(C)C[C@H](NC(=O)[C@H](Cc1ccccc1)NC(=O)CNC(=O)[C@H](CO)NC(=O)[C@@H](N)Cc1ccc(O)cc1)C(=O)N[C@H](C(=O)O)[C@H](C)O`, the “activity change, negative = inhibition” value is inactive: 490% [at 56.9 µM].

For the compound `CC(C)C[C@H]1C(=O)N2CCCC2[C@]2(O)O[C@](NC(=O)[C@@H]3C=C4c5cccc6[nH]cc(c56)CC4N(C)C3)(C(C)C)C(=O)N12` (some centres undefined), the “activity change, negative = inhibition” value was inactive: -38.7%.

On to `COc1ccc2[nH]c3c(c2c1)CCNC3`, for which the “activity change, negative = inhibition” value is inactive: -18.3%.

In the case of `NCC(O)c1ccc(O)cc1` (centres undefined), the Potency result was “inactive”.

Take `CC(=O)C1CCC2C3CCC4CC(O)CCC4(C)C3CCC12C` (centres undefined): the “activity change, negative = inhibition” value is inactive: 11.3%.

Turning to `C[N+]1(C)C2CCC1CC(OC(=O)C(CO)c1ccccc1)C2` (centres undefined), the Potency result was “inactive”.

For the compound `CC(=O)O[C@H]1C[C@@H]2CC[C@@H]3[C@H](CC[C@@]4(C)[C@H]3C[C@H]([N+]3(C)CCCCC3)[C@@H]4OC(C)=O)[C@@]2(C)C[C@@H]1[N+]1(C)CCCCC1`, the Potency entry is “inactive”.

For `CC12NC(Cc3ccccc31)c1ccccc12` (centres undefined), the “activity change, negative = inhibition” value is inactive: 38.3% [at 56.9 µM].

For `CC(=O)[C@H]1[C@H](C#N)C[C@H]2[C@@H]3CC=C4C[C@@H](O)CC[C@]4(C)[C@H]3CC[C@@]21C`, the “activity change, negative = inhibition” value is inactive: 0.698%.

Regarding `CN1CCc2cc(O)cc3c2C1Cc1ccc(O)c(O)c1-3` (centres undefined), the “activity change, negative = inhibition” value is inactive: -140% [at 56.9 µM].

Turning to `CN1CCc2cc(O)cc3c2[C@H]1Cc1ccc(O)c(O)c1-3`, the “activity change, negative = inhibition” value was inactive: -52.9%.

As to `Clc1cncc(N2CCNCC2)n1`, the Potency was active: 4.23 µM.

`NCC(CC(=O)O)c1ccc(Cl)cc1` (centres undefined): the Potency result is “inactive”.

With `C[C@H](N)Cc1cccc(C(F)(F)F)c1`, the “activity change, negative = inhibition” value was inactive: 23.5% [at 56.9 µM].

In the case of `Oc1ccc2c3c1O[C@H]1c4[nH]c5ccccc5c4C[C@@]4(O)[C@@H](C2)N(CC2CC2)CC[C@]314`, the “activity change, negative = inhibition” value is inactive: -1.83%.

Regarding `CC(C)(O)[C@H]1O[C@H]2CC[C@@]3(C)[C@@](O)(CC[C@H]4Cc5c([nH]c6ccccc56)[C@@]43C)C2=CC1=O`, the “activity change, negative = inhibition” value is inactive: 9.24%.

In the case of `C[N+](C)(C)CCOC(=O)CBr`, the Potency entry was “inactive”.

With `CNCCc1ccc(O)c(O)c1`, the “activity change, negative = inhibition” value is inactive: -5.13%.

For `CN(N=O)c1ccc(O)c(O)c1`, the Potency is active: 5.97 µM.

For the compound `CCCN1CCC[C@@H]2Cc3nc(N)ncc3C[C@H]21`, the “activity change, negative = inhibition” value is inactive: 4.8%.

For `C=CCN1CC[C@]23c4c5ccc(O)c4O[C@H]2/C(=N/NC(=O)c2ccccc2)CC[C@@]3(O)[C@H]1C5`, the “activity change, negative = inhibition” value is inactive: -35%.

Consider `CC(C)C[C@H](NC(=O)[C@H](Cc1ccccc1)NC(=O)CNC(=O)[C@H](CS)N(C(=O)[C@@H](N)Cc1ccc(O)cc1)C(C)(C)C)C(=O)N([C@H](C(=O)O)[C@H](C)O)C(C)(C)C` (H-Y[X1]GFL[X2]-OH), for which the “activity change, negative = inhibition” value was inactive: 470% [at 56.9 µM].

Consider `C[C@H](CCC(=O)O)[C@H]1CC[C@H]2[C@@H]3[C@@H](O)C[C@@H]4C[C@H](O)CC[C@]4(C)[C@H]3CC[C@]12C`, for which the “activity change, negative = inhibition” value was inactive: -10.8%.

Regarding `CN(C)c1ccc(/C=C/c2cc[n+](C)c3ccccc23)cc1`, the “activity change, negative = inhibition” value is inactive: -18.5%.

Turning to `O=C(c1ccccc1)N1CCN(CCc2ccccc2)CC1`, the “activity change, negative = inhibition” value was inactive: 57.2%.

`O=c1[nH]c2ccccc2n1CCCN1CCC(n2c(=O)[nH]c3cc(Cl)ccc32)CC1`: the “activity change, negative = inhibition” value is inactive: 0.174%.

`CN(CCc1ccc(Cl)c(Cl)c1)[C@H]1CCCC[C@H]1N1CCCC1`: the “activity change, negative = inhibition” value is inactive: 478% [at 56.9 µM].

For `C/C=C1/C[N+]2(C)CCC34C(=C(C=O)[C@H]1C[C@@H]32)Nc1ccccc14` (some centres undefined), the “activity change, negative = inhibition” value is inactive: -21.5%.

Regarding `C#CCN(C)C(C)Cc1ccccc1` (centres undefined), the “activity change, negative = inhibition” value was inactive: 13.7%.

For `O=[N+]([O-])c1ccc(C2[C@H]3C(c4ccccc4)=NC4(CCCC4)N23)cc1` (some centres undefined), the “activity change, negative = inhibition” value was inactive: 0.934%.

As to `CC(C)C[C@H]1C(=O)N2CCC[C@@H]2[C@]2(O)O[C@](NC(=O)[C@@H]3C=C4c5cccc6[nH]c(Br)c(c56)C[C@H]4N(C)C3)(C(C)C)C(=O)N12`, the “activity change, negative = inhibition” value was inactive: -154% [at 56.9 µM].

On to `NC(N)=NC(=O)c1nc(Cl)c(N)nc1N`, for which the Potency result was “inactive”.

On to `CC[C@@H]1C(=O)OC[C@@H]1Cc1cncn1C`, for which the Potency result was “inactive”.

Consider `N[C@@H](Cn1oc(=O)[nH]c1=O)C(=O)O`, for which the Potency result was “inactive”.

`CCOC(=O)c1ncn2c1CN(C)C(=O)c1cc(F)ccc1-2`: the Potency entry was “inactive”.

In the case of `CN(C)C1C(=O)C(C(N)=O)=C(O)[C@@]2(O)C(=O)C3=C(O)c4c(O)cccc4[C@@](C)(O)C3[C@H](O)C12` (some centres undefined), the “activity change, negative = inhibition” value was inactive: 129% [at 56.9 µM].

`O=[N+]([O-])c1ccc2nc(N3CCNCC3)ccc2c1`: the Potency entry was “inactive”.

With `CC(C)N(CCC(C(N)=O)(c1ccccc1)c1ccccn1)C(C)C` (centres undefined), the Potency entry is “inactive”.

`N[C@@H](Cc1ccc(N(CCCl)CCCl)cc1)C(=O)O`: the “activity change, negative = inhibition” value was inactive: -27.9%.
